Assay results from the antibiotic and cytotoxicity screens of Wong et al. (2023).
The list shows a part of the results.

These compounds were tested on S. aureus RN4220 (assay: growth inhibition call (relative growth <= 0.2)). Conditions: 50 µM.

Growth inhibition call, inactive:
COCc1cn(CC[C@@H]2CC[C@@H](NC(=O)CCN3CCCCC3)[C@H](CO)O2)nn1
COc1ccc(S(=O)(=O)Nc2cccc3c2O[C@H](CN(C)C(=O)Nc2c(C)noc2C)[C@H](C)CN([C@@H](C)CO)C3=O)cc1
CC[C@@H](C)[C@@H](NC)C(=O)O
Cc1cc(C)c(N(Cc2ccccc2)S(=O)(=O)c2ccc(OCCNC(=O)c3cc4ccccc4o3)cc2)c(C(=O)NO)c1
C[C@H]1CN([C@@H](C)CO)C(=O)Cc2cc(NC(=O)CCCN(C)C)ccc2O[C@@H]1CN(C)S(C)(=O)=O
C[C@H](NC(=O)C[C@@H]1CC[C@H](NC(=O)CN2CCOCC2)[C@H](CO)O1)c1ccccc1
C[C@@H]1CN([C@H](C)CO)C(=O)Cc2cc(NC(=O)c3ccncc3)ccc2O[C@H]1CN(C)S(C)(=O)=O
O=C(C[C@@H]1CC[C@H]2[C@@H](COC[C@H](O)CN2S(=O)(=O)c2ccccc2F)O1)NCc1ccccc1F
C[C@H]1CN([C@@H](C)CO)S(=O)(=O)c2ccc(C#CC(C)(C)O)cc2O[C@@H]1CN(C)Cc1ccncc1
CC(C)NC(=O)N(C)C[C@@H]1Oc2ccc(NS(=O)(=O)c3cn(C)cn3)cc2CC(=O)N([C@H](C)CO)C[C@@H]1C
CC(C)NC(=O)Nc1ccc2c(c1)C(=O)N([C@H](C)CO)C[C@@H](C)[C@@H](CN(C)S(=O)(=O)c1cccs1)O2
C[C@@H]1CCCCO[C@@H](CN(C)C(=O)C2CCCCC2)[C@H](C)CN([C@@H](C)CO)C(=O)c2cc(NS(=O)(=O)c3ccccc3)ccc2O1
O=C(C[C@@H]1CC[C@@H]2[C@H](COC[C@H](O)CN2C(=O)c2ccncc2)O1)NCc1ccc(-c2ccccc2)cc1
CC(C)NC(=O)N(C)C[C@@H]1Oc2ccc(NS(=O)(=O)c3cn(C)cn3)cc2C(=O)N([C@@H](C)CO)C[C@@H]1C
CN1CC(=O)Nc2ccc([N+](=O)[O-])cc2C1=O
CC12CCC(O)CC1=CCC1C2CCC2(C)C(c3cccnc3)=CCC12 (configuration not stated)
C[C@@H]1CCCCO[C@@H](CN(C)C(=O)Nc2ccc3c(c2)OCO3)[C@@H](C)CN([C@H](C)CO)C(=O)c2cc(NS(=O)(=O)c3cccs3)ccc2O1
